Test results as given in publication PMC12677587.
No constants are given. Whether binding was seen depends on the method and setting. Binding seen in cells or lysates may run through a third protein. Some results given as binding are weak or reduced against the parent protein; the word gives no strength.

By UniProt entry, the sequences of proteins in these tests, tags left out.
UniProt Q06609: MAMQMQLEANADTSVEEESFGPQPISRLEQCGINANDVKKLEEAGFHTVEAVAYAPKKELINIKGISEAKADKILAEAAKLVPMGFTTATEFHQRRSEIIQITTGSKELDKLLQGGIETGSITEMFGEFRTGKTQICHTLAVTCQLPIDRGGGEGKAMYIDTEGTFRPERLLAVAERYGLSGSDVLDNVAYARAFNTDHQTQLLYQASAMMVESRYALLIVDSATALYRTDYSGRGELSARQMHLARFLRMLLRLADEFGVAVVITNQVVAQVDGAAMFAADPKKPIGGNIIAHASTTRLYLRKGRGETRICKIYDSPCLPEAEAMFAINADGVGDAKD

Target: T1, endogenous UHRF1 (human (endogenous in HEK293T)) (UniProt Q96T88)
T1 sequence: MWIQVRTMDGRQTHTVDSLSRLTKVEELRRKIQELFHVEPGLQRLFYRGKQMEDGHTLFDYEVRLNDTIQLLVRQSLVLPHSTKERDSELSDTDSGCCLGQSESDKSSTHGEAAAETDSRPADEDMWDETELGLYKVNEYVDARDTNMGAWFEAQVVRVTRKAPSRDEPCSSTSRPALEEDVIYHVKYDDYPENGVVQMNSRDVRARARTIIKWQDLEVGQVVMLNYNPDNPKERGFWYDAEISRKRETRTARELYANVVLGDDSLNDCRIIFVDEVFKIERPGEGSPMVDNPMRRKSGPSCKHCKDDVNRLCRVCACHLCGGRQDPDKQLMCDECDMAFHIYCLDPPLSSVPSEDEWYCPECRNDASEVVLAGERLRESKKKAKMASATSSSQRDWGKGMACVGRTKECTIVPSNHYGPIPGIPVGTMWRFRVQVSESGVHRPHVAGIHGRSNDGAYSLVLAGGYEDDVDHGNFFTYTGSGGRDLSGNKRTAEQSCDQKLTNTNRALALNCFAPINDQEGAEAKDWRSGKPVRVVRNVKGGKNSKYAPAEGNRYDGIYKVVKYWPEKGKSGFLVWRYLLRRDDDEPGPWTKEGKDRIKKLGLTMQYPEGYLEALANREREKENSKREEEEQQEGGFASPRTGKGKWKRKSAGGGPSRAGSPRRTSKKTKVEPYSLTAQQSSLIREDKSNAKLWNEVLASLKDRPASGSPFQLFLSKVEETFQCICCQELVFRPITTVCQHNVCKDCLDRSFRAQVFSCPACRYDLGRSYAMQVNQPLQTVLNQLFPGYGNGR
Assay: co-IP; endogenous UHRF1 and RFWD3 in HEK293T cells overexpressing RAD51 or RAD51^R254Q

## RAD51 overexpressed in HEK293T cells (from UniProt Q06609 1-339)
  binding: binds
